This is one part of the list. Antibody binding of pooled human sera (four to six donors per pool; dilution not stated) to peptides of the Trypanosoma cruzi antigen TSSA on microarrays. Quantile-normalised fluorescence in arbitrary units, mean of duplicate arrays; higher = more binding. No active / inactive call. The uninfected pools are read here as the healthy donors of the same country. The strongest signals lie near the top of the scale (about 60,000).
tested on: pooled sera of uninfected people, Colombia; assay: antibody binding signal (normalised fluorescence) (arbitrary fluorescence units); higher = stronger serum antibody binding to peptide
Method: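 Microarray of 15-residue peptides over residues 30-55 of Trypanosoma cruzi TSSAII, each with 1 to 10 substitutions at naturally variable positions, probed with one serum pool per country.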

| Sequence | antibody binding signal |
| --- | --- |
| SGKENKTATGGAPSP | 337 |
| SGKEKKAAAGGTPSP | 145 |
| TEKKTATGGTPSQSG | 1110 |
| PSGTDNKPAAGGAPS | 441 |
| PSGKENKTATGGAPS | 482 |
| KENKAATGEAPSQSG | 155 |
| PPSGKEKKPAAGGTP | 235 |
| DNKAATGEAPSQSGA | 151 |
| KEKKTATGEAPSPPG | 82 |
| TISTPPSGTDNKPAA | 525 |
| TPPSGKDKKAAAGET | 197 |
| KDNKTATGEAPSPPG | 268 |
| GTENKPATGETPSPS | 182 |
| PPSGKENKPATGEAP | 854 |
| SGKENKPATGETPSQ | 328 |
| PPSGTENKAATGEAP | 312 |
| TISTPPSGKENKAAT | 738 |
| NKPATGEAPSQSGAS | 302 |
| GKDKKTATGGTPSQS | 114 |
| KEKKTAAGEAPSQSG | 389 |

| Sequence | antibody binding signal |
| --- | --- |
| GKENKTAAGETPSPP | 145 |
| ENKTATGGTPSPPGA | 674 |
| GKENKPAAGETPSQS | 239 |
| TDKKPATGGAPSPPG | 185 |
| KKAAAGGTPSPPGAS | 158 |
| TPPSGKDNKAATGGT | 197 |
| ENKPATGGAPSQPGA | 236 |
| TENKPATGGTPSPSG | 406 |
| GTDNKTAAGEAPSQS | 144 |
| PSGTEKKTAAGGAPS | 317 |
| TPPSGKDKKAAAGGA | 163 |
| TDNKTATGGAPSQPG | 187 |
| TSSTPPSGTDKKPAA | 329 |
| SGTDKKAAAGETPSP | 330 |
| SGTDKKTAAGGTPSP | 253 |
| KEKKTATGGTPSPSG | 122 |
| GTENKTATGETPSPP | 207 |
| ISTPPSGKDKKAATG | 153 |
| KTATGEAPSPSGASS | 96.5 |
| PSGTENKTATGGAPS | 431 |

From the supplement of paper PMC10441789
